The results in this text go back to the supplement of paper PMC10338343.

± gives the standard deviation. The list shows a part of the results, in another mix than the full data.

This assay has as its system MIWI (PIWIL1) piRISC loaded with piRNA #1 (30 nt). Briefly: pre-steady-state target cleavage rate (min^-1); MIWI and MILI are mouse PIWI proteins and EfPiwi is from a freshwater sponge; tags in brackets are library labels; higher = faster piRNA-guided slicing of the target. As to conditions: guide: piRNA #1 5'p-UGAGGUAGUAGGUUGUAUAGUAUCCAGAGG; auxiliary factor: 500 nM mouse GTSF1. In outline: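 In Cleave-'n-Seq, a transcribed, DNA-blocked target RNA library (0.1 nM) was combined with 1 nM active affinity-purified piRISC bearing one synthetic guide, with or without 500 nM GTSF1 partner protein. Reactions ran in HEPES–potassium acetate buffer at 33 °C for 0–8 or 0–960 min. Uncleaved targets were sequenced and normalised to depth and to weakly complementary targets, three trials were pooled, and k3 was capped at 0.0001 min^-1. The pre-steady-state cleavage rate was obtained by fitting a burst-and-steady-state model.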
With GGACUCGAUACUAUACAACCUACUACCUCA, the “pre-steady-state target cleavage rate” value amounted to 1.69 ± 0.12.

For the sequence CCUCUGGAUACUAUACAACCUACUAGGACA, the “pre-steady-state target cleavage rate” value worked out at 0.0724 ± 0.02. Regarding GCUCAGGAUUCUAUACAACCUACUACCUCA, the “pre-steady-state target cleavage rate” value worked out at 1.87 ± 0.092. On to GGUCUGGAUACUAUACAACCUACUACGUCA, for which the “pre-steady-state target cleavage rate” value was 0.654 ± 0.062. Consider GGUCUGGAUACUAUACAACCUAAUACCUCA, for which the “pre-steady-state target cleavage rate” value was determined as 0.635 ± 0.05. Consider GGACUGGAUUCUAUACAACCUACUUCCUCA, for which the “pre-steady-state target cleavage rate” value was determined as 0.0166 ± 0.0046.

With GGACUGGAUACUAUACAACGUUCUACCUCA, the “pre-steady-state target cleavage rate” value turned out to be 0.107 ± 0.014. For the sequence GGAGACCAUACUAUACAACCUACUCCCUCA, the “pre-steady-state target cleavage rate” value is 1.03 ± 0.082. For GGAGACGAUACUACACAACCUACUACCUCA, the “pre-steady-state target cleavage rate” value amounted to 1.8 ± 0.12. Consider GGAGACGAUACUAUACAAGGAACUACCUCA, for which the “pre-steady-state target cleavage rate” value stood at 0.00367 ± 0.0036. For GGAGAUGAUACUAUACAACCUACUACCUCA, the “pre-steady-state target cleavage rate” value turned out to be 1.86 ± 0.095. Take GGAGACCUAUGAUAUGUUGCUACUACCUA: the “pre-steady-state target cleavage rate” value was below 0.0001.

In the case of GGAGACCAUACUAUACAACCUACAUGCUCA, the “pre-steady-state target cleavage rate” value is 0.144 ± 0.036. As to CCUCUGGAUACUAUAGAACCAACUACCUCA, the “pre-steady-state target cleavage rate” value was 0.0448 ± 0.0073. As to GGUCUGGAUACUUUUCAACCUACUACCUCA, the “pre-steady-state target cleavage rate” value amounted to 1.37 ± 0.11. On to GGAGAGGAUACAAUACAACGUACUACCUCA, for which the “pre-steady-state target cleavage rate” value came out at 0.0976 ± 0.016.
